In all, about 310,000 compounds went through this assay and about 2,200 (0.71%) showed an effect of 50% or more. The effect is printed as a negative number. This is one part of the list.
What follows are compounds tested against human ether-à-go-go-related gene (hERG) potassium channel (human, UniProt Q12809) (assay: primary screen, population patch clamp on CHO cells stably expressing hERG).
Sequence of human ether-à-go-go-related gene (hERG) potassium channel (Q12809 whole entry, looked up): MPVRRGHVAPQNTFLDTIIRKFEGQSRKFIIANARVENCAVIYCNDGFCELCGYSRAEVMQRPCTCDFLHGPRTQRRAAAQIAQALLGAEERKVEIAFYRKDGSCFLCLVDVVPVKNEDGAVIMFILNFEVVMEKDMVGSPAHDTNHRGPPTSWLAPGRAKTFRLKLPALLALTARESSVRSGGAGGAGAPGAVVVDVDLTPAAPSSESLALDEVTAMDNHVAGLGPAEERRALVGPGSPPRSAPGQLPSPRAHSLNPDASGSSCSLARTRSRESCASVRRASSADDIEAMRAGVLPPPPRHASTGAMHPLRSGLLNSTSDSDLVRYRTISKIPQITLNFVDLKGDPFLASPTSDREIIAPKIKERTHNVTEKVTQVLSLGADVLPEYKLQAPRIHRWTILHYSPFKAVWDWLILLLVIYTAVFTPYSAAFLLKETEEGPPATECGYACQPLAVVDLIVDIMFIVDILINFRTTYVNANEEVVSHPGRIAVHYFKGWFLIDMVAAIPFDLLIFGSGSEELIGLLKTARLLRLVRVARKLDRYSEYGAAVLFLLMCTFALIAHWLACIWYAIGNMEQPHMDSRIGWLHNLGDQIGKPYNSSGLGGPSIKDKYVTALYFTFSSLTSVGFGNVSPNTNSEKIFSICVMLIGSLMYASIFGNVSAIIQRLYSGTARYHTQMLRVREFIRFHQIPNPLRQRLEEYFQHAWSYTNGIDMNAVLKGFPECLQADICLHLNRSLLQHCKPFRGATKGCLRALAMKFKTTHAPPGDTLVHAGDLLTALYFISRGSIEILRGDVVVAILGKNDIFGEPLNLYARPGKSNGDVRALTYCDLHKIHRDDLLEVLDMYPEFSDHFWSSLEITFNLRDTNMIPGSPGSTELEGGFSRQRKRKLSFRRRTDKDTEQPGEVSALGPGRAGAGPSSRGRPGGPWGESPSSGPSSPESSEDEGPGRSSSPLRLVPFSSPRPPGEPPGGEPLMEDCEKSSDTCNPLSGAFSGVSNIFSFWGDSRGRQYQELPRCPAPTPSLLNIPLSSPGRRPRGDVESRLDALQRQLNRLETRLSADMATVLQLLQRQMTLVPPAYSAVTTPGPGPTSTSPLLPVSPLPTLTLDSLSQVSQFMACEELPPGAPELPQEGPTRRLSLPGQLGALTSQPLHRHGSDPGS

Row | SMILES | hERG current change (%, negative = inhibition) at 1uM [%]
1 | COc1ccccc1NC(=O)Oc1ccc(NC(=O)c2ccco2)cc1 | 8.01
2 | O=C(Nc1ccccc1C(=O)N1CCCCC1)C1CCCCC1 | 1.57
3 | O=C(C1=CC=CN2CCS(=O)(=O)N=C12)N1CCN(c2cccc(Cl)c2)CC1 | 28.9
4 | CCSc1nnc(NC(=O)C(C)C)s1 | 8.25
5 | CC(=O)Nc1ccc(-c2nnn(CC(=O)c3ccccc3)n2)cc1Cl | 8.22
6 | N/C(CCS(=O)(=O)c1ccc(Cl)cc1)=N\OC(=O)c1ccccc1Cl | -9.9
7 | COc1ccc(CN2[C@@H](CC(=O)O)c3ccc(C(F)(F)F)cc3S2(=O)=O)cc1 | -13.2
8 | COc1ccc(/C=C/C(=O)Nc2c(C)nn(C)c2C)cc1COc1ccc(Cl)cc1Br | 16
9 | O=C(O)C1CC=CCC1C(=O)Nc1cccc(F)c1 (stereo not shown) | 10.6
10 | CCCCS(=O)(=O)N1CCCC(C(=O)Oc2ccccc2)C1 (stereo not shown) | 10.8
11 | CCCCn1c(-c2csc3ccccc23)n[nH]c1=S | 5.98
12 | O=C(NCC1CCCO1)c1ccc2c(c1)OCO2 (stereo not shown) | 8.27
13 | CCOc1ccc(S(=O)(=O)NC2CC2)cc1 | 13.4
14 | Cc1cc(N2CCCCC2)n2ncc(-c3ccc(Cl)cc3)c2n1 | 10
15 | Cc1ccccc1OCC(=O)Nc1cccc(N(C)S(C)(=O)=O)c1 | 9.82
16 | CC(=O)Nc1ccc(NC(=O)Cc2ccc(-c3ccccc3)cc2)cc1 | 15.3
17 | COc1ccc(CCn2c(C)cc(C(=O)CCl)c2C)cc1OC | 15.3
18 | CCCCCCC(=O)N/N=C/c1c(O)n(CCCC)c(=S)[nH]c1=O | 8.83
19 | O=C(N/N=C/c1sc(=O)[nH]c1-[n+]1ccc2ccccc2c1)c1ccccc1[O-] | 16.1
20 | Cn1c(=O)c2c(ncn2CC(=O)N/N=C/c2ccc(Br)s2)n(C)c1=O | 4.75
21 | Cc1ccc(C(=O)N/N=C\c2cc3c(cc2Br)OCO3)cn1 | 10.9
22 | CCOC(=O)c1cc(-c2ccccc2)nn1CC1CC(c2cccc([N+](=O)[O-])c2)=NO1 (stereo not shown) | 7.11
23 | CC(=O)CSc1ccc(-c2nc3cc(C)c(C)cc3[nH]2)cn1 | 20.1
24 | O=C(CNc1cccc(S(=O)(=O)N2CCCC2)c1)Nc1ccc(F)cc1F | 10.2
25 | O=C(c1csc2c1CCCC2)N1CCN(c2ccc(F)cc2)CC1 | 2.84

Source: PMC4336329 (PLoS ONE, 2015)
